Here are results for 44 compounds from PMC4336329 (PLoS ONE, 2015).

Out of some 310,000 compounds screened, about 2,200 (0.71%) showed an effect of 50% or more. The effect is printed as a negative number. This is one part of the list.

human ether-à-go-go-related gene (hERG) potassium channel, sequence (Q12809 whole entry, looked up): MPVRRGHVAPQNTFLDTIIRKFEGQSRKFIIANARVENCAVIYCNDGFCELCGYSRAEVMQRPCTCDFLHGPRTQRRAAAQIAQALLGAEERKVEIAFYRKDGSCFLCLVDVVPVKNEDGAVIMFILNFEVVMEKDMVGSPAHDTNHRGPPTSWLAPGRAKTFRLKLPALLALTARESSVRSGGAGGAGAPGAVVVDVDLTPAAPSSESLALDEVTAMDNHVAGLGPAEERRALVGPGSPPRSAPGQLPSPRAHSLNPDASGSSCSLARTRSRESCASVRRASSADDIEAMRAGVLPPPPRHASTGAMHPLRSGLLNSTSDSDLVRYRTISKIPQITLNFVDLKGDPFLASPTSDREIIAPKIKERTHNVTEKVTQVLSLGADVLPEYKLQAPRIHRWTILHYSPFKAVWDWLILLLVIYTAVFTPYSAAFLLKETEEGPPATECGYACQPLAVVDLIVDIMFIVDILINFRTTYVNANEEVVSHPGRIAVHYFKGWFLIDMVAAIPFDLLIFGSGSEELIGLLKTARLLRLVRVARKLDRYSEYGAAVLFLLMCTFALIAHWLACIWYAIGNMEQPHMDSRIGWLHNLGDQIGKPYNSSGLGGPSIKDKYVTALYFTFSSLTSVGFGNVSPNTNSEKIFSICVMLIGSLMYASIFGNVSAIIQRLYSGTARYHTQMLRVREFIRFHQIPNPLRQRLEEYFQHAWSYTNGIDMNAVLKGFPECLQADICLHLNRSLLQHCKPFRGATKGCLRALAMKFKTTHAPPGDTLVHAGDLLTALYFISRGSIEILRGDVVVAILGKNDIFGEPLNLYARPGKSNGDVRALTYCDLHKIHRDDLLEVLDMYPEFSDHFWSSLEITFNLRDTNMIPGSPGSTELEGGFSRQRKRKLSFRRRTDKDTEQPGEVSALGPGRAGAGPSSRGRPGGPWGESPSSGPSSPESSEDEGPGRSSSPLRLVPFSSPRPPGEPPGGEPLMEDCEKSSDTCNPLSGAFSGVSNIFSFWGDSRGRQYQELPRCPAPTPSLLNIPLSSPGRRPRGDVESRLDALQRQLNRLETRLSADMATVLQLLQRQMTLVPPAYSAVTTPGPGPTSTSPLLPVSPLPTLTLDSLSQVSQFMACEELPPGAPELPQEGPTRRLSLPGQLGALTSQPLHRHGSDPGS

The test concerns the target human ether-à-go-go-related gene (hERG) potassium channel (human, UniProt Q12809). Put plainly: primary screen, population patch clamp on CHO cells stably expressing hERG.
`CC(=O)Nc1ccc2nc(SCC(=O)Nc3ccc(N4CCOCC4)c(Cl)c3)sc2c1`: the “hERG current change (%, negative = inhibition) at 1uM” value is 11.7%. With `O=C(c1ncn(Cc2ccccc2)c1C(=O)N1CCc2ccccc2C1)N1CCc2ccccc2C1` the figure was 4.23%; with `Cc1c(C(=O)Nc2ccccc2[N+](=O)[O-])csc1-c1ccccc1`, -12.3%; with `COc1ccc(CN2CCN(Cc3ccc4cc(F)ccc4n3)CC2CCO)c(C)c1C` (centres unmarked), 0.204%. With `CC(=O)NC12CC3CC(C1)CC(C(=O)N1CCN(S(=O)(=O)c4ccc(C(C)C)cc4)CC1)(C3)C2` the figure was 16.2%; with `CCn1c(Oc2ccc(F)cc2)nc2c1c(=O)n(C)c(=O)n2C`, 1.34%; with `Cn1c(=O)[nH]c(=O)c2c1ncn2CCCc1ccccc1`, 4.95%. In the case of `CN(C)S(=O)(=O)c1ccc(C(=O)NCC(=O)N/N=C/c2ccccc2)cc1`, the “hERG current change (%, negative = inhibition) at 1uM” value turned out to be 20.7%. For `COc1ccc(NC(=O)Cn2nnc3ccccc32)c([N+](=O)[O-])c1`, the “hERG current change (%, negative = inhibition) at 1uM” value is 16.8%.

With `C=CCNC(=O)c1cccc(NS(=O)(=O)c2ccc(Cl)cc2)c1`, the “hERG current change (%, negative = inhibition) at 1uM” value stood at 3.36%. For the compound `Cn1cc(/C=N\O)nc2c(=O)n(-c3ccccc3)c(=O)nc1-2`, the “hERG current change (%, negative = inhibition) at 1uM” value is listed as 14%. As to `CC(C)(C)NCc1cc(Cl)ccc1OCc1cccs1.Cl`, the “hERG current change (%, negative = inhibition) at 1uM” value is listed as 6.43%.

Turning to `CCN1C(=O)[C@@H]2[C@@H](c3ccc(-c4cccc(Cl)c4)cc3)N3CCC[C@@]3(C(=O)OC)[C@@H]2C1=O.O=C(O)C(F)(F)F`, the “hERG current change (%, negative = inhibition) at 1uM” value stood at 8.24%.

As for `Cc1cc(Cl)ccc1OCC(=O)Nc1cccnc1`, the “hERG current change (%, negative = inhibition) at 1uM” value is recorded as -4.54%. With `CCC(=O)Nc1ccc(NC(=O)Cc2ccccc2)cn1`, the “hERG current change (%, negative = inhibition) at 1uM” value was 8.16%. Turning to `CC(C)(C)NC(=O)CN(Cc1cccs1)C(=O)c1csnn1`, the “hERG current change (%, negative = inhibition) at 1uM” value amounted to 4.34%. `CCCCC(=O)Nc1cnc(NC(=O)c2ccco2)cc1C`: the “hERG current change (%, negative = inhibition) at 1uM” value was found to be 0.528%.

Take `CCOC(=O)c1c(NC(=O)CS(=O)(=O)c2cn(CC)c3ccccc23)sc2c1CCCCC2`: the “hERG current change (%, negative = inhibition) at 1uM” value amounted to 14.6%. With `O=C(NCc1ccc(F)cc1)C1CC(=O)N(CCc2ccccc2)C1` (centres unmarked) the figure was 5.84%. Turning to `CN(CC(=O)Nc1ccccc1C(F)(F)F)C(=O)c1cc([N+](=O)[O-])ccc1N1CCOCC1`, the “hERG current change (%, negative = inhibition) at 1uM” value came out at 10.3%. As for `O=C(CCNS(=O)(=O)c1cccs1)N1CCN(c2cccc(C(F)(F)F)c2)CC1`, the figure is -2.16%; as for `CN(C(=O)Nc1ccc(Cl)cc1)n1cnc2ccccc2c1=O`, 14.3%. As for `CCCCN(CCCNC(=O)C1CCCN(S(=O)(=O)CCC)C1)Cc1ccccc1` (centres unmarked), the figure is -5.54%; as for `Cc1nc2ccc(NC(=O)c3ccc(S(=O)(=O)N(C)C)cc3)cc2s1`, 7.85%; as for `Cc1c(Cl)cccc1NC(=S)N1CCOCC1`, 3.18%. With `CCCCn1c(SCC(=O)Nc2nnc(C)s2)nnc1-c1ccoc1C` the figure was 2.33%; with `COc1cc(/C=N/Nc2ccccn2)ccc1O`, 5.55%. For `O=C(Cc1ccc(Cl)cc1)Nc1cc(Cl)ccn1`, the “hERG current change (%, negative = inhibition) at 1uM” value is 4.05%.

Turning to `Cc1noc(/C=C/N(C)C)c1S(=O)(=O)N1CCC(C(=O)Nc2ccc(Cl)cc2)CC1`, the “hERG current change (%, negative = inhibition) at 1uM” value was found to be 17.7%. As for `Cc1ccc(CN2CC34C=CC(O3)C(C(=O)NCc3ccco3)C4C2=O)cc1` (centres unmarked), the figure is 6.26%. As for `Cc1ccccc1NC(=O)c1c(C)[nH]c(=S)c(C#N)c1-c1ccco1`, the figure is 5.58%; as for `CCc1ccc(C(=O)OCC(=O)NC2CCCC2)cc1`, 10.6%; as for `CCc1ccc2nc(N(CCCN(C)C)C(=O)c3ccc4c(c3)OCCO4)sc2c1.Cl`, 2.17%. With `O=C(CCN1CCN(Cc2ccccc2)CC1)NNC(=O)Cc1ccc(Cl)c(Cl)c1` the figure was -26.4%; with `O=S(=O)(NCc1ccccc1Br)c1cccs1`, 7.6%. On to `CCOc1ccc2c(c1)C(C)=CC(C)(C)N2C(=O)Nc1ccccc1F`, for which the “hERG current change (%, negative = inhibition) at 1uM” value came out at 12.5%. As for `c1ccc(-n2cc(CN3CCCC(CN4CCCC4)C3)c(-c3ccc4c(c3)OCO4)n2)cc1` (centres unmarked), the figure is 7.56%.

For `COc1ccccc1NC(=O)/C(C#N)=C/c1ccc(OCCN2CCOCC2)c(OC)c1`, the “hERG current change (%, negative = inhibition) at 1uM” value was determined as 13.2%.

Turning to `Cc1cc(Cl)c(S(=O)(=O)NCc2ccccc2)cc1OCC(N)=O`, the “hERG current change (%, negative = inhibition) at 1uM” value came out at 2.68%. As for `Nc1nc(-c2cccnc2)nc2sc3c(c12)CCCC3`, the “hERG current change (%, negative = inhibition) at 1uM” value is listed as 5.47%.

For the compound `CSc1nc(-c2ccco2)nn1C(=O)CCc1ccccc1`, the “hERG current change (%, negative = inhibition) at 1uM” value amounted to 20.2%. With `COc1ccc(CN2CCN(c3ncnc4scc(-c5ccc(F)cc5)c34)CC2)cc1`, the “hERG current change (%, negative = inhibition) at 1uM” value is -1.77%. With `COc1ccc(/C=C2\C(=O)c3ccccc3OC2c2ccccc2)cc1` (centres unmarked) the figure was 17.6%; with `COc1cc2c3c(c1)C1(C(=O)N3C(C)(C)C=C2C)C(C#N)=C(N)Oc2cc(O)ccc21` (centres unmarked), -9.14%.
